Read-outs that look alike come from different tables or passages of the source.
Legend:
[1] = target: T1, MLKL (full length) (Homo sapiens, UniProt Q8NB16); test: KINOMEscan binding assay, MLKL; conditions: equilibrium dissociation constant, class symbols
T1 construct: purchased DiscoverX (KINOMEscan service); host or cells: E. coli BL21-derived (T7 phage) or HEK293
T1 sequence (Q8NB16 1-471): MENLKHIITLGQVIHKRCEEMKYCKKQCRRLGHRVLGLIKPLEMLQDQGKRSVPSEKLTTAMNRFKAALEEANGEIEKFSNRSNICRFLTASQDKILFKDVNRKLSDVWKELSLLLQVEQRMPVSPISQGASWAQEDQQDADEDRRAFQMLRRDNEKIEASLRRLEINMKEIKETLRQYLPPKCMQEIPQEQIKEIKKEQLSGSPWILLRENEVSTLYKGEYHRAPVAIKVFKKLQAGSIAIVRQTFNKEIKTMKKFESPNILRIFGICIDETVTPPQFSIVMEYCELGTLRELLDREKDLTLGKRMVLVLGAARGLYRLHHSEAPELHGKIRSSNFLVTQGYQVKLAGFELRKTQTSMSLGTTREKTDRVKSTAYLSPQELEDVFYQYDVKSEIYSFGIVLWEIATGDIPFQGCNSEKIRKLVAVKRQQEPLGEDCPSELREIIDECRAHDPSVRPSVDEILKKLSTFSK
Text: The Hill Slope was set to −1.

[2] = target: T2, RIP1 (Homo sapiens, UniProt Q13546); test: KINOMEscan binding assay, RIP1; conditions: equilibrium dissociation constant, class symbols
T2 construct: purchased DiscoverX (KINOMEscan service); host or cells: E. coli BL21-derived (T7 phage) or HEK293
T2 sequence (Q13546 1-671): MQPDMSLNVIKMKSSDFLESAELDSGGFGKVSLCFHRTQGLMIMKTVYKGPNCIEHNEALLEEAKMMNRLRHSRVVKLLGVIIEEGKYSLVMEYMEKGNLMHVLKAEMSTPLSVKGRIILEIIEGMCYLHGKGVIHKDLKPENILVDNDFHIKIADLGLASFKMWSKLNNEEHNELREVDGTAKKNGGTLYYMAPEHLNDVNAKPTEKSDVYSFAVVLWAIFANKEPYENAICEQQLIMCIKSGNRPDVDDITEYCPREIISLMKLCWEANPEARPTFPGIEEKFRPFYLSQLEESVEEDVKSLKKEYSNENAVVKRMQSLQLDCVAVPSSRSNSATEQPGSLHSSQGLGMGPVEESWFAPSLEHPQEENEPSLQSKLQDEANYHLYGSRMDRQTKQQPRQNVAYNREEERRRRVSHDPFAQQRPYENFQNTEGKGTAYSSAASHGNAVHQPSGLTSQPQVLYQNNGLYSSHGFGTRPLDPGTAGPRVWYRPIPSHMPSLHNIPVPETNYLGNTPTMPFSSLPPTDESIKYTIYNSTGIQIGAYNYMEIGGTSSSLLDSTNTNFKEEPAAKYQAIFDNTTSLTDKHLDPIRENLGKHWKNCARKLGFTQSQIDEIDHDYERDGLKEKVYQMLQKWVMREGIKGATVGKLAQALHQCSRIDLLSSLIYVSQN

[3] = system: U937 cells; test: Counter screen: cell viability without the TSQ cocktail (CelltiterGlo); design: species or system human; conditions: read-out: Off-target effect (IC50 cell-based assay)
Description: Counter screen: In parallel, all compounds were tested for their ability to affect cell viability. The same U937 cells were treated with compound in DMSO without the TSQ cocktail. This counter screen enabled evaluation of off-target effects. In this case, cell viability was measured by CelltiterGlo.

[4] = system: U937 human histiocytic leukemia cell line; test: Inhibition of TSQ induced necroptosis, 384 well plate format (CellTitre-Glo); conditions: U937 cells, TSQ cocktail (TNF, Smac mimetic, Q-VD-OPh), CelltiterGlo, read-out: Inhibition of TSQ-induced necroptosis (IC50 cell-based assay)
Outline: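 Necroptosis was induced in U937 cells (20,000/well) by hTNF-Fc 100 ng/ml, Smac mimetic 500 nM and Q-VD-OPh 10 μM for 48 h at 37 °C. Compounds were run as a 10-point 1:3 series from 36 μM in 0.3% DMSO. Viability was read by CellTiter-Glo luminescence (DMSO = 100%, DMSO+TSQ = 0%), and IC50 was taken from a 4-parameter fit.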

[5] = Homo sapiens, U-937, cell viability by CelltiterGlo

Compound | Kd [1] [nM] | Kd [2] [nM] | IC50 [3, 5] [nM] | IC50 ([4]; Homo sapiens, U-937) [nM] | IC50 ([3]; cell viability by CelltiterGlo) [nM] | IC50 [4] [nM]
CCC(Oc1cc(-c2n[nH]c(Nc3cnccn3)c2C(N)=O)ccc1NS(=O)(=O)C(F)F)c1ccc(F)cc1 (racemic) [Compound 233, 3-[4-(difluoromethanesulfonamido)-3-[1-(4-fluorophenyl)propoxy]phenyl]-5-[(pyrazin-2-yl)amino]-1H-pyrazole-4-carboxamide] | < 10 | > 30000 | > 30000 | 10 to 1000 |  | 
CCS(=O)(=O)Nc1ccc(-c2n[nH]c(Nc3cnc(C(F)(F)F)cn3)c2C(N)=O)cc1OCc1ccc(F)cc1 [Compound 9, 3-(4-(ethylsulfonamido)-3-((4-fluorobenzyl)oxy)phenyl) 5-((5-(trifluoromethyl)pyrazin-2 yl)amino)-1H-pyrazole-4 carboxamide] | < 10 | > 30000 | > 30000 | 10 to 1000 |  | 
CCS(=O)(=O)Nc1ccc(-c2n[nH]c(Nc3cnc(C)cn3)c2C(N)=O)cc1OCc1ccc(F)cc1 [Compound 22, 3-(4-(ethylsulfonamido)-3-((4-fluorobenzyl)oxy)phenyl)-5-((5-methylpyrazin-2-yl)amino)-1H-pyrazole-4-carboxamide] | < 10 | > 30000 | > 30000 | 10 to 1000 |  | 
CCS(=O)(=O)Nc1ccc(-c2n[nH]c(Nc3cnccn3)c2C(N)=O)cc1OCc1ccccc1 [Compound 25, 3-(3-(benzyloxy)-4-(ethylsulfonamido)phenyl)-5-(pyrazin-2-ylamino)-1H-pyrazole-4-carboxamide] | < 10 | > 30000 | > 30000 | 10 to 1000 |  | 
CCS(=O)(=O)Nc1ccc(-c2n[nH]c(Nc3cnc(C(C)C)cn3)c2C(N)=O)cc1OCc1ccc(F)cc1 [Compound 34, 3-(4-(ethylsulfonamido)-3-((4-fluorobenzyl)oxy)phenyl) 5-((5-isopropylpyrazin-2-yl)amino)-1H-pyrazole-4-carboxamide] | < 10 | > 30000 | > 30000 | 10 to 1000 |  | 
NC(=O)c1c(-c2ccc(NS(=O)(=O)C(F)F)cc2)n[nH]c1Nc1cccc(C(F)(F)F)n1 [Compound 53, 3-(4-((difluoromethyl)sulfonamido)phenyl)-5-((6-(trifluoromethyl)pyridin-2-yl)amino)-1H-pyrazole-4-carboxamide] | < 10 | > 30000 | > 30000 | 10 to 1000 |  | 
CCS(=O)(=O)Nc1ccc(-c2n[nH]c(Nc3cnc(C(C)C)cn3)c2C(N)=O)cc1 [Compound 66, 3-(4-(ethylsulfonamido)phenyl)-5-((5-isopropylpyrazin-2-yl)amino)-1H-pyrazole-4-carboxamide] | < 10 | > 30000 | > 30000 | 10 to 1000 |  | 
CCS(=O)(=O)Nc1ccc(-c2n[nH]c(Nc3cncc(C)n3)c2C(N)=O)cc1 [Compound 84, 3-(4-(ethylsulfonamido)phenyl)-5-((6-methylpyrazin-2-yl)amino)-1H-pyrazole carboxamide] | < 10 | > 30000 |  |  | > 30000 | 1000 to 30000
CCS(=O)(=O)Nc1ccc(-c2n[nH]c(Nc3cnc(C)cn3)c2C(N)=O)cc1 [Compound 101, 3-(4-(ethylsulfonamido)phenyl)-5-((5-methylpyrazin-2-yl)amino)-1H-pyrazole-4-carboxamide] | < 10 | > 30000 | > 30000 | 1000 to 30000 |  | 
CCS(=O)(=O)Nc1ccc(-c2n[nH]c(Nc3cnccn3)c2C(N)=O)cc1 [Compound 108, 3-(4-(ethylsulfonamido)phenyl)-5-(pyrazin-2-ylamino)-1H-pyrazole-4-carboxamide] | < 10 | > 30000 | > 30000 | 1000 to 30000 |  | 
CCS(=O)(=O)Nc1ccc(-c2n[nH]c(Nc3ccnc(C)c3)c2C(N)=O)cc1 [Compound 113, 3-(4-(ethylsulfonamido)phenyl)-5-((2-methylpyridin-4-yl)amino)-1H-pyrazole-4-carboxamide] | < 10 | > 30000 | > 30000 | 1000 to 30000 |  | 
CCS(=O)(=O)Nc1ccc(-c2n[nH]c(Nc3ccnc(OC)n3)c2C(N)=O)cc1 [Compound 123, 3-(4-(ethylsulfonamido)phenyl)-5-((2-methoxypyrimidin-4-yl)amino)-1H-pyrazole-4-carboxamide] | < 10 | > 30000 | > 30000 | 1000 to 30000 |  | 
CCS(=O)(=O)Nc1ccc(-c2[nH]nc(Nc3ccnc(OCCOC)c3)c2C(N)=O)cc1 [Compound 127, 5-(4-(ethylsulfonamido)phenyl)-3-((2-(2-methoxyethoxy)pyridin-4-yl)amino)-1H-pyrazole-4-carboxamide] | < 10 | > 30000 | > 30000 | 1000 to 30000 |  | 
NC(=O)c1c(-c2ccc(NS(=O)(=O)CC(F)(F)F)cc2OCc2ccc(F)cc2)n[nH]c1Nc1cnccn1 [Compound 139, 3-(2-((4-fluorobenzyl)oxy)-4-((2,2,2-trifluoroethyl)sulfonamido)phenyl)-5-(pyrazin-2-ylamino)-1H-pyrazole-4-carboxamide] | < 10 | > 30000 | > 30000 | 10 to 1000 |  | 
COc1cnc(Nc2[nH]nc(-c3ccc(NS(=O)(=O)CC(F)(F)F)c(OCc4ccc(F)cc4)c3)c2C(N)=O)cn1 [Compound 143, 3-(3-((4-fluorobenzyl)oxy)-4-((2,2,2-trifluoroethyl)sulfonamido)phenyl)-5-((5-methoxypyrazin-2-yl)amino)-1H-pyrazole-4-carboxamide] | < 10 | > 30000 | > 30000 | 10 to 1000 |  | 
CCS(=O)(=O)Nc1ccc(-c2n[nH]c(Nc3cnc(C)cn3)c2C(N)=O)cc1OCc1ccc(F)c(Cl)c1 [Compound 150, 3-(3-((3-chloro-4-fluorobenzyl)oxy)-4-(ethylsulfonamido)phenyl)-5-((5-methylpyrazin-2-yl)amino)-1H-pyrazole-4-carboxamide] | < 10 | > 30000 | > 30000 | 10 to 1000 |  | 
NC(=O)c1c(-c2ccc(NS(=O)(=O)CC(F)(F)F)c(OC3(c4ccccc4)CC3)c2)n[nH]c1Nc1cnccn1 [Compound 161, 3-(3-(1-phenylcyclopropoxy)-4-((2,2,2-trifluoroethyl)sulfonamido)phenyl)-5-(pyrazin-2-ylamino)-1H-pyrazole-4-carboxamide] | < 10 | > 30000 | 1000 to 30000 | 10 to 1000 |  | 
Cc1cnc(Nc2[nH]nc(-c3ccc(NS(=O)(=O)CC(F)(F)F)c(OCc4ccc(F)cc4)c3)c2C(N)=O)cn1 [Compound 163, 3-(3-((4-fluorobenzyl)oxy)-4-((2,2,2-trifluoroethyl)sulfonamido)phenyl)-5-((5-methylpyrazin-2-yl)amino)-1H-pyrazole-4-carboxamide] | < 10 | > 30000 | > 30000 | 10 to 1000 |  | 
C[C@H](Oc1cc(-c2n[nH]c(Nc3cc(C4CC4)on3)c2C(N)=O)ccc1NS(=O)(=O)C(F)F)c1ccc(F)cc1 [Compound 310, (S)-5-((5-cyclopropylisoxazol-3-yl)amino)-3-(4-((difluoromethyl)sulfonamido)-3-(1-(4-fluorophenyl)ethoxy)phenyl)-1H-pyrazole-4-carboxamide] | < 10 |  | > 30000 | 10 to 1000 |  | 

From patent US12583836B2 (Anaxis Pharma Pty Ltd, priority 2020, dated 2026)
